Data published in PubChem BioAssay AID686970 (National Center for Advancing Translational Sciences (NCATS), 2013).
Hit rate of the full screen: of about 360,000 compounds, about 6,000 (1.7%) were called active. The inconclusive results got no clear call from the source; some entries with a clear call stand among them for comparison. Calls come from the whole dose curve; as a rule, active = well fitted cell-killing curve with a large enough effect; inconclusive = small, poorly fitted or top-dose-only effect, or effect the other way; inactive = flat fitted curve, though single readings scatter. Potencies of inconclusive entries are left out as doubtful fits.

Test: qHTS for induction of synthetic lethality in tumor cells producing 2HG: qHTS for the HT-1080-NT fibrosarcoma cell line;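 note: NT is the 2HG producing partner of a matched IDH1 knockdown line; nearly all actives have a fitted effect of over 55% in size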;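 for activity, negative = less viability: 0% = DMSO-treated cells and -100% = media-only wells without cells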
Details: HT-1080-NT fibrosarcoma viability, CellTiter-Glo ATP luminescence, 48 h; activity, negative = less viability: at 46.1 µM (top of the series) unless noted
How it was run: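 A 48-hour cytotoxicity screen used HT-1080-NT cells plated 2 hours before compound delivery. ATP-based CellTiter-Glo luminescence measured viability, normalized to DMSO and no-cell controls.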
Potency is the fitted concentration of half-maximal effect; tags give direction and shape of the fitted curve.

Compound	Potency	activity, negative = less viability
COc1ccc(-c2cn(Cc3ccc(C(N)=O)cc3)c(-c3ccncc3)n2)cc1	inconclusive [cytotoxic, single point]	
Cc1cccc2cc(CN(Cc3ccco3)C(c3nnnn3CCc3ccccc3)C(C)C)c(=O)[nH]c12 (configuration not stated)		inactive: -1.75%
Cn1c(SCc2ccc(Br)cc2)nc2c(c1=O)SCC2		inactive: -1.06%
O=C(c1cc(=O)[nH]c2ccccc12)N1CCN(c2cccc(C(F)(F)F)c2)CC1		inactive: -15.4%
C/C(N)=C(/C#N)C(=O)CSc1nc2cc(Cl)ccc2s1	active: 35.5 µM	
CCC(C)C(=O)N1c2ccccc2C(=C2SC(C(=O)OC)=C(C(=O)OC)S2)C(=S)C1(C)C (configuration not stated)		inconclusive: -34.1% [cytotoxic]
O=C(NCc1nnnn1-c1ccc(F)c(F)c1)C(=O)c1c[nH]c2ccccc12		inactive: 5.86%
COc1ccc(OC)c(N(CC(=O)NCCc2ccc(OC)c(OC)c2)S(=O)(=O)c2ccccc2)c1		inactive: -3.43%
CC(O)(c1cccc(F)c1)c1nc(-c2cccc(C#N)c2)cs1 (configuration not stated)		inconclusive: -33.6% [cytotoxic]
Cc1ccc(/C=C/C(=O)c2ccccc(=O)c2O)c(C)c1	active: 20.6 µM	
COc1ccc(F)cc1-c1cc(NC=O)c2ncc(-c3cc(OC)c(OC)c(OC)c3)n2c1	inconclusive [cytotoxic, full curve]	
CC(=O)Nc1cccc(-c2ccnc3c2CC(C)(C(=O)NCCc2ccccc2)O3)c1 (configuration not stated)	inconclusive [cytotoxic, full curve]	
COc1ccc(-c2nnn(CC(=O)N(Cc3ccc(F)cc3)C(C(=O)NC3CCCC3)c3ccc(F)cc3)n2)cc1 (configuration not stated)		inconclusive: -16.1% [cytotoxic]
COc1ccc(C(=O)N/N=C2\CCS(=O)(=O)c3ccc(F)cc32)cc1OC	active: 20.6 µM	
COc1ccc(/C=N/N2CCOCC2)cc1Cn1cc([N+](=O)[O-])cn1		inactive: 5.11%
CN(C)CCCNC(=O)c1cc2sc3ccccc3c2s1	active: 18.4 µM	
CCOC(=O)c1ccc(NC(=S)NCCc2ccccc2)cc1	inconclusive [cytotoxic, single point]	
CC(=O)CC1c2cc(F)ccc2C=C(c2ccsc2)N1c1ccc(C#Cc2cncn2C)cc1 (configuration not stated)	inconclusive [cytotoxic, single point]	
COCC(C)n1c(SCC(=O)N(C)C2CCS(=O)(=O)C2)nc2ccccc2c1=O (configuration not stated)	inconclusive [rising, partial curve]	
CN1CCN(CC(=O)Nc2nnc(-c3cccs3)s2)CC1		inactive: -0.487%
COc1ccc(CNc2ncnc3sccc23)cc1OC	inconclusive [cytotoxic, partial curve]	
Cc1ccccc1C(=O)NC1CCSC1=O (configuration not stated)	inconclusive [rising, single point]	
CCn1c2ccccc2c2cc(NC(=O)c3cccc([N+](=O)[O-])c3C)ccc21	active: 23.1 µM	
CC(c1n[nH]c(=S)n1Cc1ccccc1)N(C)C (configuration not stated)	inconclusive [rising, partial curve]	

Compound	Potency	activity, negative = less viability
Cc1ccc(C(=O)N/N=C(/CC(=O)c2cccs2)C(F)(F)F)cc1	active: 25.9 µM	
Oc1ccc(C[C@H]2CN([C@@H](Cc3ccc(O)cc3)CN3CCC[C@@H]3CN3C(=S)NC[C@@H]3Cc3ccccc3)C(=S)N2CCc2ccccc2)cc1	inconclusive [cytotoxic, single point]	
O=C(CCCCl)Oc1ccc2cc(-c3ccc4ccccc4n3)c(=O)oc2c1		inactive: 5.99%
O=Nc1c(O)n(Cc2c(Cl)cccc2Cl)c2ccccc12	inconclusive [cytotoxic, single point]	
CC(C)c1ccc(C(C)NCCS(=O)(=O)c2ccc(Br)cc2)cc1 (configuration not stated)	inconclusive [cytotoxic, single point]	
Cc1ccc(N2C(S)=C(C#N)C(=O)NC2c2ccco2)cc1 (configuration not stated)		inconclusive: 5.92%
O=[N+]([O-])c1ccc(N2CCN(S(=O)(=O)c3ccc(Cl)cc3)CC2)cc1NCC1CCCO1 (configuration not stated)		inactive: 5.48%
O=C1NC(c2cccc(Cl)c2)Nc2ccccc21 (configuration not stated)	active: 11.6 µM	
Oc1ccccc1-c1nc(NCc2ccccc2)c2ccccc2n1	inconclusive [cytotoxic, partial curve]	
COc1ccc(C(NC(C)=O)c2ccc3cccnc3c2O)c(OC)c1 (configuration not stated)	inconclusive [cytotoxic, partial curve]	
Cc1ccc(C(=O)OCc2cc3ccccc3[nH]c2=O)cc1	inconclusive [cytotoxic, single point]	
COc1ccc(C(CNC(=O)c2cccc(S(=O)(=O)Nc3ccc(C)cc3)c2)N2CCOCC2)cc1 (configuration not stated)		inactive: -13.6%
CCc1c(C)nc2ncnn2c1N1CCC(C(=O)NCc2cccc(OC)c2)CC1		inactive: 4.69%
CC(=O)c1c(C)nc(-c2ccc(Cl)cc2)nc1NC(=O)C(C)C		inactive: -20.3%
OCCN1CCN(c2ncnc3c2ncn3[C@H]2CN(Cc3ccc4c(c3)OCO4)C[C@@H](CO)O2)CC1	inconclusive [rising, single point]	
CC(C)N(Cc1cn[nH]c1-c1ccc(-c2ccccc2)cc1)Cc1nccn1C	active: 14.6 µM	
COc1cc(CN2CCc3ccccc3C2)cc([N+](=O)[O-])c1O		inactive: 3.29%
Cc1c(NC(=S)N/N=C/c2ccc(Br)cc2)c(=O)n(-c2ccccc2)n1C		inactive: -13.2%
CC(C)CCNC(=O)C12CN(Cc3ccccc3)CC1C(c1cccc([N+](=O)[O-])c1)=NO2 (configuration not stated)		inactive: 0.418%
O=C1/C(=C\c2ccc(Cl)c(Cl)c2)CN(C(=O)CCN2CCOCC2)C/C1=C/c1ccc(Cl)c(Cl)c1	active: 5.17 µM	
COCc1cccc(-c2csc(C(O)c3ccc(F)c(F)c3)n2)c1 (configuration not stated)	inconclusive [cytotoxic, single point]	
C=C[C@H]1[C@H](OC2OC(CO)C(O)C(O)C2O)OC=C(C(=O)OC)[C@H]1C[C@H]1CC(=O)C[C@H](CC(=O)CCc2ccc(O)cc2)O1 (some centres not stated)		inactive: 5.22%
CC1CCc2sc(C(=O)N(C)CC(=O)Nc3ccc(N4CCOCC4)cc3)cc2C1 (configuration not stated)		inactive: -10.9%
O=C(N/N=C/c1sc(N2CCOCC2)nc1-c1ccccc1)c1ccccc1O	inconclusive [cytotoxic, single point]	

Compound	Potency	activity, negative = less viability
Cc1ccc2nc(-c3ccccc3)cc(C(=O)N(C)CC(=O)Nc3ccccc3Br)c2c1	inconclusive [cytotoxic, single point]	
Cc1ccc2nc(NC(=O)c3ccc(S(=O)(=O)N4CCCc5ccccc54)cc3)sc2c1	active: 18.4 µM	
Brc1ccc(CSc2ccc3nnc(-c4cccnc4)n3n2)cc1	inconclusive [cytotoxic, partial curve]	
O=C1c2ccc3c4c(ccc(c24)C(=O)N1c1cccc(O)c1)C(=O)N(c1cccc(O)c1)C3=O	inconclusive [cytotoxic, full curve]	
O=C1CN(C(=O)COC(=O)CCC(=O)c2ccc3c(c2)OCCO3)c2ccccc2N1		inactive: -1.42%
CCOC(=O)C1=CCC(c2ccc(N(CC)CC)cc2)N(S(=O)(=O)c2ccc(C)cc2)C1c1ccc([N+](=O)[O-])cc1 (configuration not stated)		inactive: 11.5%
CCC(C)C(NC(=O)C1CCC(C)CC1)C(=O)NCc1cccnc1 (configuration not stated)		inactive: 5.77%
C/C(=N\Nc1ccc(S(N)(=O)=O)cc1[N+](=O)[O-])c1ccc2c(c1)OCO2	inconclusive [cytotoxic, partial curve]	
Cc1cc(F)ccc1-c1cc(C(=O)NCc2cc(C(F)(F)F)cc(C(F)(F)F)c2)[nH]n1		inconclusive: 16.7%
OCC1(Cc2ccc(Cl)cc2)CCN(Cc2ccc(F)c(F)c2)CC1	inconclusive [cytotoxic, single point]	
Cn1c(/C=N/c2nc3ccccc3[nH]2)nc2ccccc21		inconclusive: -91.2%
Cc1cccc(C(=O)Nc2ccc(C(=O)/C=C/c3ccncc3)cc2)c1	inconclusive [cytotoxic, single point]	
O=C1C=C(c2ccc(-c3ccccc3)c(F)c2)C[C@@H](c2ccc3c(c2)OCO3)C1	inconclusive [rising, single point]	
O=C(COC(=O)/C=C/c1ccc2c(c1)OCO2)NCc1ccc(F)cc1	inconclusive [cytotoxic, single point]	
Cc1ccc(-c2csc(NC(=O)C3=COCCO3)n2)cc1		inactive: -0.117%
Cc1ccc(F)c(C(=O)N2CCCC(C)(C(=O)NS(=O)(=O)C3CC3)C2)c1F (configuration not stated)	inconclusive [rising, single point]	
Cc1ccc(Cn2cnc3c(cnn3C(C)(C)C)c2=O)cc1	inconclusive [cytotoxic, single point]	
CCCCCc1ccc(OCCCC[n+]2cccc(C)c2)c(CCCCC)c1	active: 4.11 µM	
CC(C)c1nnc(NC(=O)CCC(=O)NC2CC2)s1		inactive: 6.18%
COc1ccc(C(=O)NCc2c(C)nn(Cc3ccccc3)c2C)cc1S(=O)(=O)N1CCOCC1	inconclusive [cytotoxic, single point]	
O=C(c1cccc(C(F)(F)F)c1)N1CCc2c([nH]c3ccccc23)C1C(F)(F)F (configuration not stated)	inconclusive [cytotoxic, partial curve, poor fit]	
O=C(Nc1ccc(Cl)cc1)N1CCN(Cc2ccc3c(c2)OCO3)CC1		inactive: -5.43%
C(#Cc1ccccc1)C[N+]1(CC#Cc2cccc3ccccc23)CCOCC1	inconclusive [cytotoxic, single point]	
CCCCOc1ccc(CN(C)c2ncnc(N)n2)cc1	inconclusive [cytotoxic, single point]	
